From the supplement of paper PMC11348887
Where a name gives a salt, the structure may show the parent alone. Some of the results follow. No stated cut-off is given here; in the data, active = -2 or less and inactive = the rest. Repeats are few or missing, and single values can be far off.

The molecules below were run on hPSC-derived cortical neurons (WA09) (assay: nuclei number (viability) z-score; higher = more surviving cells). Conditions: 5 µM; treatment: days 7-14 after plating, readout day 21.
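Further: nuclei counted from DAPI counterstain by automated high-content image analysis, four fields per well at ×20 in 384-well plates, with sequential b-score then z-score normalization.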

SMILES | nuclei number (z-score)
CCC(=O)NS(=O)(=O)c1ccc(-c2c(-c3ccccc3)noc2C)cc1 [Parecoxib] | inactive: -0.0231
CCn1cc(-c2ccnc3[nH]c(-c4cccc(CN(C)C)c4)cc23)c(-c2ccc(NC(=O)N(C)C)cc2)n1 | inactive: 0.845
Cc1nc(Nc2n[nH]c3c2CN(C(=O)N[C@H](CN(C)C)c2ccccc2)C3(C)C)c2sccc2n1 | active: -4.2
CSc1cccc(Nc2ncc3cc(-c4c(Cl)cccc4Cl)c(=O)n(C)c3n2)c1 | inactive: -0.388
Cc1cc(N2CCOCC2)ccc1Nc1nc(NC2CCCCC2)c2[nH]cnc2n1 | inactive: -0.16
C[C@H](NC(=O)Cc1cc(F)cc(F)c1)C(=O)N[C@@H]1C(=O)N(C)c2ccccc2-c2ccccc21 | inactive: 0.315
O=C(O)c1ccc(Nc2ncc3c(n2)-c2ccc(Cl)cc2C(c2c(F)cccc2F)=NC3)cc1 | inactive: 1.78
OCc1ccc(-c2ccc(-c3ccc(CO)s3)o2)s1 | inactive: 0.175
O=c1c(-c2ccc(O)cc2)coc2cc(O)cc(O)c12 [Genistein] | inactive: -0.0117
C=CCc1ccc(O)c(-c2ccc(O)c(CC=C)c2)c1 [Honokiol] | inactive: 0.443
CNC(=C[N+](=O)[O-])NCCSCc1ccc(CN(C)C)o1 [Ranitidine] | inactive: -0.499
COC(=O)[C@H]1[C@H]2C[C@@H]3c4[nH]c5cc(OC)ccc5c4CCN3C[C@H]2C[C@@H](OC(=O)c2cc(OC)c(OC)c(OC)c2)[C@@H]1OC [Reserpine] | active: -3.01
COc1cc2c(cc1OC)-c1cc3ccc(OC)c(OC)c3c[n+]1CC2 [Palmatine chloride] | active: -4.08
Cc1cn([C@@H]2C[C@@H](O)[C@H](CO)O2)c(=O)[nH]c1=O [Telbivudine] | inactive: 0.323
NC(=O)c1ncn([C@@H]2O[C@H](CO)[C@@H](O)[C@H]2O)c1O [Mizoribine] | inactive: 0.222
O=C(N/N=C/c1ccc([N+](=O)[O-])o1)c1ccc(O)cc1 [Nifuroxazide] | inactive: 2.5
Cc1cc(NC(=O)c2cccc(NC(=O)/C=C/CN(C)C)c2)ccc1Nc1nccc(-c2cccnc2)n1 | inactive: -1.2
CCOc1cc2ncc(C#N)c(Nc3ccc(OCc4ccccn4)c(Cl)c3)c2cc1NC(=O)/C=C/CN(C)C [Neratinib (HKI-272)] | active: -6.96
Cc1cccc(Nc2cc(Cl)nc(SCC(=O)O)n2)c1C | inactive: 0.474
Cn1cc(C2=C(c3ccc(Cl)cc3Cl)C(=O)NC2=O)c2ccccc21 | inactive: 1.39
OCc1ccc(O[C@@H]2O[C@H](CO)[C@@H](O)[C@H](O)[C@H]2O)cc1 [Gastrodin] | inactive: -0.48

SMILES | nuclei number (z-score)
O=C(NC(NC(=S)Nc1ccc(F)c([N+](=O)[O-])c1)C(Cl)(Cl)Cl)C(c1ccccc1)c1ccccc1 (stereo not drawn) | inactive: 2.57
CCc1cc(C(N)=S)ccn1 [Ethionamide] | inactive: 0.0544
CCc1c2c(nc3ccc(OC(=O)N4CCC(N5CCCCC5)CC4)cc13)-c1cc3c(c(=O)n1C2)COC(=O)[C@]3(O)CC [Irinotecan] | inactive: 1.09
CCc1c2c(nc3ccc(OC(=O)N4CCC(N5CCCCC5)CC4)cc13)-c1cc3c(c(=O)n1C2)COC(=O)[C@]3(O)CC [Irinotecan HCl Trihydrate] | inactive: -0.227
COC(=O)c1ccc2c(c1)[nH]c1ncnc(NCCCN3CCCCC3)c12 | inactive: 0.857
C[C@H]1[C@H](NC(=O)/C(=N\OC(C)(C)C(=O)O)c2csc(N)n2)C(=O)N1S(=O)(=O)O [Aztreonam] | inactive: -1.03
OC[C@H]1O[C@@H](OCCc2ccc(O)cc2)[C@H](O)[C@@H](O)[C@@H]1O [Salidroside] | inactive: 0.289
CCC[C@H](NC(=O)/C(C#N)=C/c1cccc(Br)n1)c1ccccc1 [Degrasyn (WP1130)] | inactive: 1.12
CCOC(=O)NCCCC(=O)NCCc1ccccc1 | inactive: -0.329
CC(C)(O/N=C(\C(=O)N[C@@H]1C(=O)N2C(C(=O)[O-])=C(C[n+]3ccccc3)CS[C@H]12)c1csc(N)n1)C(=O)O [Ceftazidime Pentahydrate] | inactive: -0.494
C=C1/C(=C\C=C2/CCC[C@]3(C)[C@@H]([C@H](C)CCCC(C)(C)O)CC[C@@H]23)C[C@@H](O)C[C@@H]1O [Calcitriol] | inactive: 0.184
C[C@]12C=CC(=O)C=C1CC[C@@H]1[C@@H]2C(=O)C[C@@]2(C)[C@H]1CC[C@]2(O)C(=O)CO [Prednisone] | inactive: 3.81
COC(=O)CC[C@H](NC(=O)[C@H](CC(=O)OC)NC(=O)OCc1ccccc1)C(=O)N[C@H](C(=O)N[C@@H](CC(=O)OC)C(=O)CF)C(C)C | inactive: 0.0469
c1ccc2c(Oc3nc(Nc4ccc(N5CCOCC5)cc4)c4ncn(C5CCCCC5)c4n3)cccc2c1 [Purmorphamine] | inactive: 2.73
CCOC(=O)CCC(=O)O[C@H]1[C@H](O[C@@H]2[C@@H](C)[C@H](O[C@H]3C[C@@](C)(OC)[C@@H](O)[C@H](C)O3)[C@@H](C)C(=O)O[C@H](CC)[C@@](C)(O)[C@H](O)[C@@H](C)C(=O)[C@H](C)C[C@@]2(C)O)O[C@H](C)C[C@@H]1N(C)C [Erythromycin Ethylsuccinate] | inactive: 0.478
COc1cc(NC(=O)c2ccc(-c3ccc(Cl)cc3)o2)cc(OC)c1 | inactive: 0.0055
CC1(C)[C@@H](O[C@H]2O[C@H](C(=O)O)[C@@H](O)[C@H](O)[C@H]2O[C@@H]2O[C@H](C(=O)O)[C@@H](O)[C@H](O)[C@H]2O)CC[C@]2(C)[C@H]3C(=O)C=C4[C@@H]5C[C@@](C)(C(=O)O)CC[C@]5(C)CC[C@@]4(C)[C@]3(C)CC[C@@H]12 [Ammonium Glycyrrhizinate] | inactive: -0.454
CC1(C)[C@@H](O[C@H]2O[C@H](C(=O)O)[C@@H](O)[C@H](O)[C@H]2O[C@@H]2O[C@H](C(=O)O)[C@@H](O)[C@H](O)[C@H]2O)CC[C@]2(C)[C@H]3C(=O)C=C4[C@@H]5C[C@@](C)(C(=O)O)CC[C@]5(C)CC[C@@]4(C)[C@]3(C)CC[C@@H]12 [Glycyrrhizin (Glycyrrhizic Acid)] | inactive: -0.204
CCC1=C[C@@H]2CN(C1)Cc1c([nH]c3ccccc13)[C@@](C(=O)OC)(c1cc3c(cc1OC)N(C)[C@H]1[C@@](O)(C(=O)OC)[C@H](OC(C)=O)[C@]4(CC)C=CCN5CC[C@]31[C@@H]54)C2 [Vinorelbine Tartrate] | active: -5.26
CC(C)CN(C[C@@H](O)[C@H](Cc1ccccc1)NC(=O)O[C@H]1CCOC1)S(=O)(=O)c1ccc(N)cc1 [Amprenavir] | inactive: 0.899
CNC(=C[N+](=O)[O-])NCCSCc1csc(CN(C)C)n1 [Nizatidine] | inactive: -0.235

SMILES | nuclei number (z-score)
OCc1ccccc1 [Benzyl alcohol] | inactive: 0.671
CCn1cc(C(=O)O)c(=O)c2cc(F)c(N3CCNC(C)C3)c(F)c21 (stereo not drawn) [Lomefloxacin HCl] | inactive: -0.555
CS(=O)(=O)Nc1ccc([N+](=O)[O-])cc1Oc1ccccc1 [Nimesulide] | inactive: 0.296
CCOC(=O)c1ccc(N2NC(=O)C(=Cc3ccc([N+](=O)[O-])o3)C2=O)cc1 | inactive: -0.702
N#CN=C(NCCCCCCOc1ccc(Cl)cc1)Nc1ccncc1 | active: -7.04
CCn1cc(C(=O)O)c(=O)c2cc(F)c(N3CCN(C)CC3)cc21 [Pefloxacin Mesylate Dihydrate] | inactive: 0.485
CCn1cc(C(=O)O)c(=O)c2cc(F)c(N3CCN(C)CC3)cc21 [Pefloxacin Mesylate] | inactive: -0.231
CCNC(=O)c1noc(-c2cc(Cl)c(O)cc2O)c1-c1ccc(OC)cc1 | active: -5.29
C[C@@H]1O[C@@H]1P(=O)(O)O [Fosfomycin Tromethamine] | inactive: 0.761
C[C@@H]1CN(c2c(F)c(N)c3c(=O)c(C(=O)O)cn(C4CC4)c3c2F)C[C@H](C)N1 [Sparfloxacin] | inactive: -0.669
C[C@@H]1C(=O)O[C@H]2C[C@@]34[C@H]5C[C@@H](C(C)(C)C)[C@]36[C@@H](OC(=O)[C@@H]6O)O[C@@]4(C(=O)O5)[C@]21O [Ginkgolide A] | inactive: -0.249
CC1=C(C(=O)OC2CCCCC2)C(c2ccc([N+](=O)[O-])cc2)C2=C(CC(C)(C)CC2=O)N1 (stereo not drawn) | inactive: -0.54
O=C(O)C(Cc1ccccc1[N+](=O)[O-])=NNc1nc(-c2ccc(Cl)c(Cl)c2)cs1 (mixture of isomers) | inactive: -0.0628
CC(c1cc2ccccc2s1)N(O)C(N)=O (stereo not drawn) [Zileuton] | inactive: 0.396
NC(=O)c1ncn([C@@H]2O[C@H](CO)[C@@H](O)[C@H]2O)c1N [Acadesine] | inactive: 0.783
CNNCc1ccc(C(=O)NC(C)C)cc1 [Procarbazine HCl] | inactive: -0.0869
O=c1[nH]c(=O)n([C@H]2C[C@H](O)[C@@H](CO)O2)cc1F [Floxuridine] | inactive: 0.243
C/C(=N\NC(=S)N1CCC1)c1ccccn1 | active: -4.73
CN(C)CCc1c[nH]c2ccc(C[C@H]3COC(=O)N3)cc12 [Zolmitriptan] | inactive: -0.275
CN(C)CCC=C1c2ccccc2C=Cc2ccccc21 [Cyclobenzaprine HCl] | inactive: 0.17
O=C1c2cccc(O)c2C(=O)c2c(O)cc(CO)cc21 [Aloe-emodin] | inactive: 0.429
